Laboratory results from PubChem BioAssay AID588855 (National Center for Advancing Translational Sciences (NCATS), 2011).
Values joined by “and” are separate entries in the source; they are usually repeats but may differ in a detail not shown here. Equal entries are not always repeated. About 5,000 (1.2%) of roughly 410,000 compounds were called active. The inconclusive results got no clear call from the source; some entries with a clear call stand among them for comparison. Calls follow the shape of the dose curve; as a rule, active = well fitted inhibition curve with a large enough effect; inconclusive = small, poorly fitted or top-dose-only effect; inactive = no such curve, though single readings can be large or run the other way. Potencies beside an inconclusive call are fits to weak or partial responses and may not hold up.

assay: qHTS for Inhibitors of TGF-b; conditions: HepG2 CAGA-GFP TGF-b/SMAD3 reporter, GFP fluorescence, 18 h, TGF-beta stimulated, 500 pg/mL final; series mostly up to 46.1 µM; activity, negative = inhibition: at the top concentration; also: nearly all actives have a fitted effect of over 65% in size
How it was run: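 HEPG2 CAGA-GFP cells (1000/well, DMEM with 1% FBS) were pre-incubated 2 h at 37 degrees C, given compound by pin tool, then stimulated with TGF-beta at 500 pg/mL final for 18 h before per-cell GFP fluorescence imaging.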
% is scaled to controls: 0 for no effect and ±100 for the full control effect; potency is read from the fitted curve at half-maximal effect; tags tell the direction and shape of the fitted curve.

| SMILES | Potency | activity, negative = inhibition |
| --- | --- | --- |
| O=C1Nc2ccccc2S/C1=C/c1cccs1 | inconclusive: 8.91 µM [inhibitor, partial curve, poor fit] |  |
| O=c1c2ccccc2sc2ccc(C#CC3(O)CCCCC3)cc12 | inconclusive: 15.8 µM [inhibitor, single point] |  |
| Nc1c(N2CCOCC2)cc(Cl)c2nonc12 |  | inactive: 0.35% |
| COc1ccc(C(=O)CC2(O)C(=O)N(Cc3cccc(C(F)(F)F)c3)c3ccccc32)cc1 (stereo unspecified) | inconclusive: 22.4 µM [inhibitor, single point] |  |
| Cc1nn(-c2ccc(NC(=O)c3ccncc3)cc2)c(C)c1Cl |  | inactive: -17.8% |
| CCOC(=O)c1ccc(-n2c(CCC(=O)O)ccc2-c2ccccc2)cc1 | inconclusive: 15.8 µM [inhibitor, single point] and inconclusive: 14.1 µM [inhibitor, single point] |  |
| CCc1cccc(NC(=O)C(Cc2ccccc2)n2cccc2)c1 (stereo unspecified) | inconclusive: 22.4 µM [inhibitor, single point] |  |
| CCOc1cc(/C=C\[N+](=O)[O-])ccc1OCC(=O)Nc1ccccc1C | active: 7.94 µM |  |
| c1ccc(CCNc2c3c(nc4ncnn24)CCC3)cc1 | inconclusive: 20 µM [inhibitor, single point] |  |
| CC(C)OC(=O)CSc1nnc(-c2ccncc2)n1N | inconclusive: 6.31 µM [inhibitor, single point] |  |
| CCCOc1cccc(C(=O)Nc2cc(-c3ccccc3)no2)c1 |  | inactive: 0% |
| COc1cccc(-c2nc(SCC(=O)NC3CCCC3)c(-c3ccc(C)cc3)[nH]2)c1 | inconclusive: 35.5 µM [inhibitor, single point] |  |
| CC1=C(c2ccc(C(C)C)cc2)S(=O)(=O)N=C1N1CCC(C(=O)NCCc2ccco2)CC1 |  | inactive: -12.2% |
| Cc1ccc(CNC(=O)c2ccc3nc(SCc4ccc(F)cc4)[nH]c3c2)cc1 | inconclusive: 10 µM [inhibitor, partial curve, poor fit] |  |
| COc1ccc2c(c1)NC(C)(C)C=C2C | inconclusive: 6.31 µM [inhibitor, single point] |  |
| CN1C(=O)C(N=Nc2ccc([N+](=O)[O-])cc2)SC1=S (stereo unspecified) | inconclusive: 15.8 µM [inhibitor, single point] |  |
| COc1ccc(C(=O)Nc2cc(C(=O)c3ccccc3)c(C)oc2=O)cc1 | inconclusive: 10 µM [inhibitor, partial curve, poor fit] |  |
| Cc1ccc2c(c1)c1c(n2CC(O)CN2CCCCCC2)CCCC1 (stereo unspecified) |  | inactive: -19.9% |
| CCOc1cccc2cc(S(=O)(=O)c3ccccc3F)c(=O)oc12 | inconclusive: 0.562 µM [inhibitor, full curve, poor fit] |  |
| CCS(=O)(=O)N1CC(=O)N(c2ccc(Cl)cc2)C(C)(C(=O)NC2CCCCC2)C1 (stereo unspecified) |  | inactive: 0% |
| Cc1nc2ccc(NS(=O)(=O)c3ccc(C)c(C)c3)cc2s1 | inconclusive: 11.2 µM [inhibitor, single point] |  |
| Cc1ccc2nc3c(c(N)c2c1)CCN3C |  | inactive: -3.62% |

| SMILES | Potency | activity, negative = inhibition |
| --- | --- | --- |
| CC(=O)Nc1ccccc1-c1nc2ccccc2n(CC(=O)Nc2cccc(C(F)(F)F)c2)c1=O | inconclusive: 17.8 µM [inhibitor, partial curve, poor fit] |  |
| CCCCC(C(=O)NC1CCCC1)N(Cc1ccco1)C(=O)Cn1nnc(-c2ccc(F)cc2)n1 (stereo unspecified) | inconclusive: 3.55 µM [inhibitor, single point] |  |
| O=c1cc(N2CCCCC2)c(-c2ccccc2)nn1Cc1cccc(F)c1 | inconclusive: 22.4 µM [inhibitor, single point] |  |
| C[C@@H]1CN([C@H](C)CO)C(=O)c2cc(NS(=O)(=O)c3ccc(F)cc3)ccc2O[C@@H]1CN(C)Cc1ccc(Cl)c(Cl)c1 | active: 11.2 µM |  |
| CC(C)CN(CC(C)C)c1ccc(/C=N/n2cnnc2)cc1[N+](=O)[O-] | inconclusive: 35.5 µM [inhibitor, single point] |  |
| Cc1ccc(-c2nc(CS(=O)CC(=O)NCc3ccc4c(c3)OCO4)c(C)o2)cc1 (stereo unspecified) | inconclusive: 35.5 µM [inhibitor, single point] |  |
| COc1ccc(S(=O)(=O)C(C#N)c2nc3ccccc3nc2N2CCCC(C)C2)cc1 (stereo unspecified) | inconclusive: 1.78 µM [inhibitor, partial curve, poor fit] |  |
| Cc1ccc(CN(Cc2ccco2)C(=O)COc2ccc(C)c(C)c2)cc1 | inconclusive: 35.5 µM [inhibitor, single point] |  |
| CCOc1ccc(NS(=O)(=O)c2ccc3c4c(cccc24)C(=O)N3)cc1 | inconclusive: 35.5 µM [inhibitor, single point] |  |
| Cc1ccc(OCC(=O)N/N=C/c2cn(C)c3ccccc23)cc1 |  | inactive: -9.88% |
| Cc1ccc(C(=O)/C=C/NNC(=O)c2ccccc2O)cc1 | inconclusive: 15.8 µM [inhibitor, single point] |  |
| O=C(CNC(=S)N(Cc1ccccc1)Cc1ccccc1F)NCc1ccccc1 | inconclusive: 20 µM [inhibitor, single point] |  |
| CC(=O)N1c2ccccc2Sc2ccc3ccccc3c21 |  | inactive: -3.34% |
| O=C(NC(=S)N1CCN(c2ccc(C(F)(F)F)cc2[N+](=O)[O-])CC1)c1cccs1 | inconclusive: 35.5 µM [inhibitor, single point] |  |
| COc1ccc(NC(=O)c2sc3cc(C(F)(F)F)cnc3c2-c2cccs2)cc1 |  | inactive: 3.18% |
| O=C(NC1CCCCC1)C(c1cccs1)N(C(=O)c1ccccn1)c1ccccc1 (stereo unspecified) |  | inactive: -0.817% |
| CN(C)CCCN1c2ccc3ccccc3c2Sc2cccc(Cl)c21 | inconclusive: 35.5 µM [inhibitor, single point] |  |
| O=C1CCCN2N=C(SCC(=O)N3N=C(c4ccc(Br)cc4)CC3c3ccc(F)cc3)SC2=N1 (stereo unspecified) | inconclusive: 11.2 µM [inhibitor, single point] |  |
| Cc1ccc(C)c(N2CCN(C(=O)CSCc3ccccc3Cl)CC2)c1 | inconclusive: 25.1 µM [inhibitor, single point] |  |
| CCCNC(=O)C1(C)CCCN(C(=O)c2ccccc2OC)C1 (stereo unspecified) |  | inactive: -7.37% |
| C=CCn1c(SCC(=O)Nc2ccc(NC(C)=O)cc2)nc2sc(C)c(C)c2c1=O | inconclusive: 35.5 µM [inhibitor, single point] |  |
| O=C(C[C@@H]1C[C@H]2c3cc(NC(=O)C4CCC4)ccc3O[C@H]2[C@@H](CO)O1)NCc1ccc(-c2ccccc2)cc1 | inconclusive: 35.5 µM [inhibitor, single point] |  |

| SMILES | Potency | activity, negative = inhibition |
| --- | --- | --- |
| Nc1ccccc1SC(CC(=O)c1ccccc1)c1ccccc1 (stereo unspecified) | inconclusive: 22.4 µM [inhibitor, single point] |  |
| O=C(Nc1ncc([N+](=O)[O-])s1)c1cccs1 | inconclusive: 17.8 µM [inhibitor, single point] and inconclusive: 11.2 µM [inhibitor, partial curve] |  |
| COc1cccc(Nc2nc(C(N)c3ccccc3Cl)cs2)n1 (stereo unspecified) | inconclusive: 15.8 µM [inhibitor, single point] |  |
| Cc1cccc(C(=O)N/N=C/c2ccc[nH]2)c1 |  | inactive: -12.9% |
| O=C1CCC(C(=O)OC(C(=O)c2c[nH]c3ccccc23)c2ccccc2)=NN1 (stereo unspecified) | inconclusive: 35.5 µM [inhibitor, single point] |  |
| COc1cc(C(=O)O[C@H]2CC(C)=CC[C@@]3(C)CC[C@@](O)(C(C)C)[C@H]23)ccc1O | inconclusive: 35.5 µM [inhibitor, single point] |  |
| COC(=O)c1ccccc1NC(=O)C1CCN(C(=O)N2CC(C)Oc3ccccc32)CC1 (stereo unspecified) | inconclusive: 22.4 µM [inhibitor, single point] |  |
| Cc1cccc(NC(c2ccccc2F)c2ccc3ccc(C)nc3c2O)n1 (stereo unspecified) | inconclusive: 6.31 µM [inhibitor, full curve, poor fit] |  |
| CC(=O)c1ccc(-c2ccc(C3C4C=CCCC4(C)C(=O)N3Cc3ccccc3)c(F)c2)cc1 (stereo unspecified) | inconclusive: 35.5 µM [inhibitor, single point] |  |
| CN(C)S(=O)(=O)c1cc(NC(=O)CSc2ncc(C(F)(F)F)cc2Cl)ccc1Cl | inconclusive: 35.5 µM [inhibitor, single point] |  |
| CCc1cccc(C)c1NC(=O)CSc1nnc(CCCOc2ccc(Cl)cc2Cl)n1C | inconclusive: 35.5 µM [inhibitor, single point] |  |
| O=C(Nc1cccc(-c2cccc(Cl)c2)c1)C1CCN(CC2CCOC2)CC1 (stereo unspecified) | inconclusive: 25.1 µM [inhibitor, single point] |  |
| Cc1cc(C)c(CN2CCC(CO)(CCOc3ccccc3)CC2)cc1C | inconclusive: 20 µM [inhibitor, single point] |  |
| Nc1ccn([C@@H]2O[C@H](C(=O)N[C@H](CO)c3ccccc3)[C@@H](O)[C@H]2O)c(=O)n1 |  | inactive: 5.45% |
| Cc1ccc2c(c1)ncc[n+]2CC(=O)c1ccc(F)cc1 | inconclusive: 35.5 µM [inhibitor, single point] |  |
| Oc1ccccc1-c1nc(NCc2cccnc2)c2ccccc2n1 | active: 20 µM |  |
| Cc1cccc(NC(=O)Cn2nnc3ccccc32)c1 |  | inactive: -5.69% |
| Cc1ccc(C(=O)C2CCN(C(=O)c3ccc(C)cc3)CC2)cc1 |  | inactive: -21.5% |
| Cc1cccc(NC(=O)Cc2ccc(F)cc2)c1 | inconclusive: 0.562 µM [inhibitor, full curve, poor fit] |  |
| Cc1nc(=O)c(-c2ccccc2)c(C)n1-c1ccccc1Cl |  | inactive: -16% |
| C#Cc1ccc(CN2CCC(C(=O)Nc3ccc(Oc4ccccc4)nc3)CC2)cc1 | inconclusive: 3.98 µM [inhibitor, full curve] |  |
| CCOc1ccc(CN(C)C(=O)CCl)cc1 | inconclusive: 35.5 µM [inhibitor, single point] |  |
